Experimental data published in the supplement of paper PMC8728848.
The other results are listed elsewhere or left out.

Legend:
Assay in all cases: glycan array binding signal (z-score within array); higher = stronger binding
Details in all cases: glycan notation: IUPAC condensed, linker removed
[1] = biological target: Gal(b1-4)GlcNAc(b1-2)[Gal(b1-4)GlcNAc(b1-4)]Man(a1-3)[GlcNAc(b1-4)][Gal(b1-4)GlcNAc(b1-2)[Gal(b1-4)GlcNAc(b1-6)]Man(a1-6)]Man(b1-4)GlcNAc(b1-4)GlcNAc
In short: (§1)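 Glycan array binding is given as a within-array Z-score, which can be read as non-binding when negative. The arrays, 3228 of them, came from the Consortium for Functional Glycomics database and were retained only where the protein sequence was available. Z-scores were averaged across arrays of the same protein sequence at different concentrations or buffers and across linkers.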

[2] = biological target: Gal(b1-4)GlcNAc(b1-2)[Gal(b1-4)GlcNAc(b1-6)]Man(a1-6)[Gal(b1-4)GlcNAc(b1-2)Man(a1-3)]Man(b1-4)GlcNAc(b1-4)GlcNAc
In short: as §1

[3] = biological target: Gal(b1-4)GlcNAc(b1-2)[Gal(b1-4)GlcNAc(b1-6)]Man(a1-6)[Gal(b1-4)GlcNAc(b1-2)Man(a1-3)]Man(b1-4)GlcNAc(b1-4)[Fuc(a1-6)]GlcNAc
In short: as §1

[4] = biological target: Gal(b1-4)GlcNAc(b1-2)[Gal(b1-4)GlcNAc(b1-6)]Man(a1-6)[GlcNAc(b1-4)][Gal(b1-4)GlcNAc(b1-2)Man(a1-3)]Man(b1-4)GlcNAc(b1-4)GlcNAc
In short: as §1

[5] = biological target: Gal(b1-4)GlcNAc(b1-2)[Gal(b1-4)GlcNAc(b1-6)]Man(a1-6)[GlcNAc(b1-4)][Gal(b1-4)GlcNAc(b1-2)[Gal(b1-4)GlcNAc(b1-4)]Man(a1-3)]Man(b1-4)GlcNAc(b1-4)[Fuc(a1-6)]GlcNAc
In short: as §1

[6] = biological target: Gal(b1-4)GlcNAc(b1-3)Gal(b1-3)GalNAc
In short: as §1

[7] = biological target: Gal(b1-4)GlcNAc(b1-3)Gal(b1-3)GlcNAc
In short: as §1

[8] = biological target: Gal(b1-4)GlcNAc(b1-3)Gal(b1-4)Glc
In short: as §1

[9] = biological target: Gal(b1-4)GlcNAc(b1-3)Gal(b1-4)GlcNAc
In short: as §1

[10] = biological target: Gal(b1-4)GlcNAc(b1-3)Gal(b1-4)GlcNAc(b1-2)Man(a1-3)[Gal(b1-4)GlcNAc(b1-3)Gal(b1-4)GlcNAc(b1-2)Man(a1-6)]Man(b1-4)GlcNAc(b1-4)GlcNAc
In short: as §1

[11] = biological target: Gal(b1-4)GlcNAc(b1-3)Gal(b1-4)GlcNAc(b1-2)Man(a1-3)[Gal(b1-4)GlcNAc(b1-3)Gal(b1-4)GlcNAc(b1-2)Man(a1-6)]Man(b1-4)GlcNAc(b1-4)[Fuc(a1-6)]GlcNAc
In short: as §1

[12] = biological target: Gal(b1-4)GlcNAc(b1-3)Gal(b1-4)GlcNAc(b1-2)[Gal(b1-4)GlcNAc(b1-3)Gal(b1-4)GlcNAc(b1-6)]Man(a1-6)[Gal(b1-4)GlcNAc(b1-3)Gal(b1-4)GlcNAc(b1-2)Man(a1-3)]Man(b1-4)GlcNAc(b1-4)GlcNAc
In short: as §1

[13] = biological target: Gal(b1-4)GlcNAc(b1-3)Gal(b1-4)GlcNAc(b1-2)[Gal(b1-4)GlcNAc(b1-3)Gal(b1-4)GlcNAc(b1-6)]Man(a1-6)[Gal(b1-4)GlcNAc(b1-3)Gal(b1-4)GlcNAc(b1-2)Man(a1-3)]Man(b1-4)GlcNAc(b1-4)[Fuc(a1-6)]GlcNAc
In short: as §1

[14] = biological target: Gal(b1-4)GlcNAc(b1-3)Gal(b1-4)GlcNAc(b1-3)Gal(b1-4)GlcNAc
In short: as §1

[15] = biological target: Gal(b1-4)GlcNAc(b1-3)Gal(b1-4)GlcNAc(b1-3)Gal(b1-4)GlcNAc(b1-2)Man(a1-3)[Gal(b1-4)GlcNAc(b1-3)Gal(b1-4)GlcNAc(b1-3)Gal(b1-4)GlcNAc(b1-2)Man(a1-6)]Man(b1-4)GlcNAc(b1-4)GlcNAc
In short: as §1

[16] = biological target: Gal(b1-4)GlcNAc(b1-3)Gal(b1-4)GlcNAc(b1-3)Gal(b1-4)GlcNAc(b1-2)Man(a1-3)[Gal(b1-4)GlcNAc(b1-3)Gal(b1-4)GlcNAc(b1-3)Gal(b1-4)GlcNAc(b1-2)Man(a1-6)]Man(b1-4)GlcNAc(b1-4)[Fuc(a1-6)]GlcNAc
In short: as §1

[17] = biological target: Gal(b1-4)GlcNAc(b1-3)Gal(b1-4)GlcNAc(b1-3)Gal(b1-4)GlcNAc(b1-2)[Gal(b1-4)GlcNAc(b1-3)Gal(b1-4)GlcNAc(b1-3)Gal(b1-4)GlcNAc(b1-6)]Man(a1-6)[Gal(b1-4)GlcNAc(b1-3)Gal(b1-4)GlcNAc(b1-3)Gal(b1-4)GlcNAc(b1-2)Man(a1-3)]Man(b1-4)GlcNAc(b1-4)[Fuc(a1-6)]GlcNAc
In short: as §1

[18] = biological target: Gal(b1-4)GlcNAc(b1-3)Gal(b1-4)GlcNAc(b1-3)Gal(b1-4)GlcNAc(b1-3)Gal(b1-4)GlcNAc(b1-2)Man(a1-3)[Gal(b1-4)GlcNAc(b1-3)Gal(b1-4)GlcNAc(b1-3)Gal(b1-4)GlcNAc(b1-3)Gal(b1-4)GlcNAc(b1-2)Man(a1-6)]Man(b1-4)GlcNAc(b1-4)GlcNAc
In short: as §1

[19] = biological target: Gal(b1-4)GlcNAc(b1-3)Gal(b1-4)GlcNAc(b1-3)Gal(b1-4)GlcNAc(b1-3)Gal(b1-4)GlcNAc(b1-2)Man(a1-3)[Gal(b1-4)GlcNAc(b1-3)Gal(b1-4)GlcNAc(b1-3)Gal(b1-4)GlcNAc(b1-3)Gal(b1-4)GlcNAc(b1-2)Man(a1-6)]Man(b1-4)GlcNAc(b1-4)[Fuc(a1-6)]GlcNAc
In short: as §1

[20] = biological target: Gal(b1-4)GlcNAc(b1-3)Gal(b1-4)GlcNAc(b1-3)Gal(b1-4)GlcNAc(b1-3)Gal(b1-4)GlcNAc(b1-2)[Gal(b1-4)GlcNAc(b1-3)Gal(b1-4)GlcNAc(b1-3)Gal(b1-4)GlcNAc(b1-3)Gal(b1-4)GlcNAc(b1-6)]Man(a1-6)[Gal(b1-4)GlcNAc(b1-3)Gal(b1-4)GlcNAc(b1-3)Gal(b1-4)GlcNAc(b1-3)Gal(b1-4)GlcNAc(b1-2)Man(a1-3)]Man(b1-4)GlcNAc(b1-4)[Fuc(a1-6)]GlcNAc
In short: as §1

[21] = biological target: Gal(b1-4)GlcNAc(b1-3)Gal(b1-4)GlcNAc(b1-3)Gal(b1-4)GlcNAc(b1-3)Gal(b1-4)GlcNAc(b1-3)Gal(b1-4)GlcNAc(b1-2)Man(a1-3)[Gal(b1-4)GlcNAc(b1-3)Gal(b1-4)GlcNAc(b1-3)Gal(b1-4)GlcNAc(b1-3)Gal(b1-4)GlcNAc(b1-3)Gal(b1-4)GlcNAc(b1-2)Man(a1-6)]Man(b1-4)GlcNAc(b1-4)GlcNAc
In short: as §1

[22] = biological target: Gal(b1-4)GlcNAc(b1-3)Gal(b1-4)GlcNAc(b1-3)Gal(b1-4)GlcNAc(b1-3)Gal(b1-4)GlcNAc(b1-3)Gal(b1-4)GlcNAc(b1-2)Man(a1-3)[Gal(b1-4)GlcNAc(b1-3)Gal(b1-4)GlcNAc(b1-3)Gal(b1-4)GlcNAc(b1-3)Gal(b1-4)GlcNAc(b1-3)Gal(b1-4)GlcNAc(b1-2)Man(a1-6)]Man(b1-4)GlcNAc(b1-4)[Fuc(a1-6)]GlcNAc
In short: as §1

B1: AAL (Agrocybe aegerita), Q6WY08 (protein)
chain: MQGVNIYNISAGTSVDLAAPVTTGDIVTFFSSALNLNAGAGNPNNTTLNLFAENGAYLLHIAFRLQENVIIFNSRQPDGPWLVEQRVSDVANQFAGIDGKAMVTVFDHGDKYQVVINEKTVIQYTKQISGLTLSLSYNATEETSIFSTVVEAVTYTGLALEHHHHHH
glycan array binding signal (z-score) [1]: -0.108 | glycan array binding signal (z-score) [2]: -0.127 | glycan array binding signal (z-score) [3]: -0.102 | glycan array binding signal (z-score) [4]: -0.13 | glycan array binding signal (z-score) [5]: -0.09 | glycan array binding signal (z-score) [6]: -0.127 | glycan array binding signal (z-score) [7]: -0.161 | glycan array binding signal (z-score) [8]: -0.142 | glycan array binding signal (z-score) [9]: -0.152 | glycan array binding signal (z-score) [10]: -0.106 | glycan array binding signal (z-score) [11]: -0.117 | glycan array binding signal (z-score) [12]: -0.114 | glycan array binding signal (z-score) [13]: -0.085 | glycan array binding signal (z-score) [14]: -0.158 | glycan array binding signal (z-score) [15]: -0.099 | glycan array binding signal (z-score) [16]: -0.06 | glycan array binding signal (z-score) [17]: 0.042 | glycan array binding signal (z-score) [18]: 0.041 | glycan array binding signal (z-score) [19]: -0.096 | glycan array binding signal (z-score) [20]: -0.008 | glycan array binding signal (z-score) [21]: -0.096 | glycan array binding signal (z-score) [22]: -0.099
